# Reference: the supplement of paper PMC8728848
# Some of the results follow.
# B1: CVN-E41G (protein)
# chain: MHHHHHHENLYFQSGNFSQACYNSAIQGSVLTSTCIRTNGGYNTSSIDLNSVIANVDGSLKWQGSNFIETCRNTQLAGSSELAAECKTRAQQFVSTKINLDDHIAAIDGTLKYE
# Legend:
# Test in all cases: glycan array binding signal (z-score within array); higher = stronger binding
# Conditions in all cases: glycan notation: IUPAC condensed, linker removed; mutation: E41A
# [1] = target: Neu5Ac(a2-6)Gal(b1-4)GlcNAc(b1-2)Man(a1-3)[Man(a1-6)]Man(b1-4)GlcNAc(b1-4)GlcNAc
# How it was run: (§1)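 Negative Z-scores can be read as non-binding. The Z-score is calculated within each array and then averaged across arrays of one protein sequence at different concentrations or buffers and across linkers. Arrays, 3228 in all, were curated from the Consortium for Functional Glycomics database and kept only where the protein sequence was available.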
# [2] = target: Neu5Ac(a2-6)Gal(b1-4)GlcNAc(b1-2)Man(a1-3)[Neu5Ac(a2-3)Gal(b1-4)GlcNAc(b1-2)Man(a1-6)]Man(b1-4)GlcNAc(b1-4)GlcNAc
# How it was run: as §1
# [3] = target: Neu5Ac(a2-6)Gal(b1-4)GlcNAc(b1-2)Man(a1-3)[Neu5Ac(a2-6)Gal(b1-4)GlcNAc(b1-2)Man(a1-6)]Man(b1-4)GlcNAc(b1-4)GlcNAc
# How it was run: as §1
# [4] = target: Neu5Ac(a2-6)Gal(b1-4)GlcNAc(b1-2)Man(a1-3)[Neu5Ac(a2-6)Gal(b1-4)GlcNAc(b1-2)Man(a1-6)]Man(b1-4)GlcNAc(b1-4)[Fuc(a1-6)]GlcNAc
# How it was run: as §1
# [5] = target: Neu5Ac(a2-6)Gal(b1-4)GlcNAc(b1-2)Man(a1-6)Man(b1-4)GlcNAc(b1-4)GlcNAc
# How it was run: as §1
# [6] = target: Neu5Ac(a2-6)Gal(b1-4)GlcNAc(b1-2)Man(a1-6)[Gal(b1-4)GlcNAc(b1-2)Man(a1-3)]Man(b1-4)GlcNAc(b1-4)GlcNAc
# How it was run: as §1
# [7] = target: Neu5Ac(a2-6)Gal(b1-4)GlcNAc(b1-2)Man(a1-6)[GlcNAc(b1-2)Man(a1-3)]Man(b1-4)GlcNAc(b1-4)GlcNAc
# How it was run: as §1
# [8] = target: Neu5Ac(a2-6)Gal(b1-4)GlcNAc(b1-2)Man(a1-6)[Man(a1-3)]Man(b1-4)GlcNAc(b1-4)GlcNAc
# How it was run: as §1
# [9] = target: Neu5Ac(a2-6)Gal(b1-4)GlcNAc(b1-2)[Neu5Ac(a2-6)Gal(b1-4)GlcNAc(b1-4)]Man(a1-3)[GlcNAc(b1-4)][Neu5Ac(a2-6)Gal(b1-4)GlcNAc(b1-2)[Neu5Ac(a2-6)Gal(b1-4)GlcNAc(b1-6)]Man(a1-6)]Man(b1-4)GlcNAc(b1-4)GlcNAc
# How it was run: as §1
# [10] = target: Neu5Ac(a2-6)Gal(b1-4)GlcNAc(b1-2)[Neu5Ac(a2-6)Gal(b1-4)GlcNAc(b1-4)]Man(a1-3)[GlcNAc(b1-4)][Neu5Ac(a2-6)Gal(b1-4)GlcNAc(b1-4)Man(a1-6)]Man(b1-4)GlcNAc(b1-4)GlcNAc
# How it was run: as §1
# [11] = target: Neu5Ac(a2-6)Gal(b1-4)GlcNAc(b1-2)[Neu5Ac(a2-6)Gal(b1-4)GlcNAc(b1-6)]Man(a1-6)[Neu5Ac(a2-6)Gal(b1-4)GlcNAc(b1-2)Man(a1-3)][GlcNAc(b1-4)]Man(b1-4)GlcNAc(b1-4)GlcNAc
# How it was run: as §1
# [12] = target: Neu5Ac(a2-6)Gal(b1-4)GlcNAc(b1-3)Gal(b1-3)GlcNAc
# How it was run: as §1
# [13] = target: Neu5Ac(a2-6)Gal(b1-4)GlcNAc(b1-3)Gal(b1-4)GlcNAc
# How it was run: as §1
# [14] = target: Neu5Ac(a2-6)Gal(b1-4)GlcNAc(b1-3)Gal(b1-4)GlcNAc(b1-2)Man(a1-3)[Neu5Ac(a2-6)Gal(b1-4)GlcNAc(b1-3)Gal(b1-4)GlcNAc(b1-2)Man(a1-6)]GalNAc
# How it was run: as §1
# [15] = target: Neu5Ac(a2-6)Gal(b1-4)GlcNAc(b1-3)Gal(b1-4)GlcNAc(b1-3)Gal(b1-4)GlcNAc
# How it was run: as §1
# [16] = target: Neu5Ac(a2-6)Gal(b1-4)GlcNAc(b1-3)Gal(b1-4)GlcNAc(b1-3)Gal(b1-4)GlcNAc(b1-2)Man(a1-3)[Neu5Ac(a2-6)Gal(b1-4)GlcNAc(b1-3)Gal(b1-4)GlcNAc(b1-3)Gal(b1-4)GlcNAc(b1-2)Man(a1-6)]GalNAc
# How it was run: as §1
# [17] = target: Neu5Ac(a2-6)Gal(b1-4)GlcNAc(b1-3)Gal(b1-4)GlcNAc(b1-3)GalNAc
# How it was run: as §1
# [18] = target: Neu5Ac(a2-6)Gal(b1-4)GlcNAc(b1-3)Gal(b1-4)GlcNAc(b1-3)[Neu5Ac(a2-6)Gal(b1-4)GlcNAc(b1-3)Gal(b1-4)GlcNAc(b1-6)]GalNAc
# How it was run: as §1
# [19] = target: Neu5Ac(a2-6)Gal(b1-4)GlcNAc(b1-3)Gal(b1-4)GlcNAc(b1-6)[Gal(b1-3)]GalNAc
# How it was run: as §1
# [20] = target: Neu5Ac(a2-6)Gal(b1-4)GlcNAc(b1-3)Gal(b1-4)[Fuc(a1-3)]GlcNAc(b1-3)Gal(b1-4)[Fuc(a1-3)]GlcNAc
# How it was run: as §1
# [21] = target: Neu5Ac(a2-6)Gal(b1-4)GlcNAc(b1-3)GalNAc
# How it was run: as §1
# [22] = target: Neu5Ac(a2-6)Gal(b1-4)GlcNAc(b1-3)[Neu5Ac(a2-6)Gal(b1-4)GlcNAc(b1-6)]GalNAc
# How it was run: as §1
# [23] = target: Neu5Ac(a2-6)Gal(b1-4)GlcNAc(b1-6)GalNAc
# How it was run: as §1
# [24] = target: Neu5Ac(a2-6)Gal(b1-4)GlcNAc(b1-6)[Gal(b1-3)GlcNAc(b1-3)]Gal(b1-4)Glc
# How it was run: as §1
# [25] = target: Neu5Ac(a2-6)Gal(b1-4)GlcNAc(b1-6)[Gal(b1-3)]GalNAc
# How it was run: as §1
# [26] = target: Neu5Ac(a2-6)Gal(b1-4)GlcNAc6S
# How it was run: as §1
# [27] = target: Neu5Ac(a2-6)GalNAc
# How it was run: as §1
# [28] = target: Neu5Ac(a2-6)GalNAc(b1-4)GlcNAc
# How it was run: as §1
# [29] = target: Neu5Ac(a2-6)GalNAc(b1-4)GlcNAc6S
# How it was run: as §1
# [30] = target: Neu5Ac(a2-6)GlcNAc(b1-4)GlcNAc
# How it was run: as §1
# [31] = target: Neu5Ac(a2-6)GlcNAc(b1-4)GlcNAc(b1-4)GlcNAc
# How it was run: as §1
binder,measurement,setting,value
B1,glycan array binding signal (z-score),[1],-0.209
same,glycan array binding signal (z-score),[2],-0.216
same,glycan array binding signal (z-score),[3],-0.146
same,glycan array binding signal (z-score),[4],-0.196
same,glycan array binding signal (z-score),[5],-0.221
same,glycan array binding signal (z-score),[6],-0.201
same,glycan array binding signal (z-score),[7],-0.069
same,glycan array binding signal (z-score),[8],-0.229
same,glycan array binding signal (z-score),[9],-0.197
same,glycan array binding signal (z-score),[10],-0.198
same,glycan array binding signal (z-score),[11],-0.176
same,glycan array binding signal (z-score),[12],-0.152
same,glycan array binding signal (z-score),[13],-0.22
same,glycan array binding signal (z-score),[14],-0.159
same,glycan array binding signal (z-score),[15],-0.211
same,glycan array binding signal (z-score),[16],-0.108
same,glycan array binding signal (z-score),[17],-0.2
same,glycan array binding signal (z-score),[18],0.108
same,glycan array binding signal (z-score),[19],-0.172
same,glycan array binding signal (z-score),[20],0.069
same,glycan array binding signal (z-score),[21],-0.219
same,glycan array binding signal (z-score),[22],-0.21
same,glycan array binding signal (z-score),[23],-0.018
same,glycan array binding signal (z-score),[24],-0.189
same,glycan array binding signal (z-score),[25],-0.171
same,glycan array binding signal (z-score),[26],-0.215
same,glycan array binding signal (z-score),[27],-0.237
same,glycan array binding signal (z-score),[28],-0.229
same,glycan array binding signal (z-score),[29],-0.144
same,glycan array binding signal (z-score),[30],-0.234
same,glycan array binding signal (z-score),[31],-0.136
